The list shows a part of the results.

One assay has as its system HSkMC. Kind of assay: cytotoxicity call (relative viability < 0.9). The conditions noted are these: 10 µM.
Another assay has as its system HepG2. The assay is described as follows: cytotoxicity call (relative viability < 0.9). Conditions: 10 µM.
In another assay the test system is S. aureus RN4220. The assay is described as follows: growth inhibition call (relative growth <= 0.2). The conditions noted are these: 50 µM.

For the compound `C=c1nc(C)sc1=C1NN=C(N)O1`, the cytotoxicity call in the assay on HSkMC and in the assay with HepG2 was “inactive” each time. The growth inhibition call in the assay with S. aureus RN4220 was “inactive”.

As for `C[C@H]1CN([C@@H](C)CO)S(=O)(=O)c2ccc(C#CC3CC3)cc2O[C@H]1CN(C)C(=O)c1cccc(F)c1`, the cytotoxicity call in the assay on HSkMC and in the assay on HepG2 was “inactive” in each case. In addition, in the assay with S. aureus RN4220, the growth inhibition call is “inactive”.

On to `Cc1ccc(S(=O)(=O)N(C)C[C@@H]2OCCCC[C@@H](C)Oc3ccc(NC(=O)Nc4c(C)noc4C)cc3C(=O)N([C@@H](C)CO)C[C@H]2C)cc1`, for which the cytotoxicity call with HSkMC and in the assay with HepG2 was “inactive” each time. In the assay on S. aureus RN4220, the growth inhibition call is “inactive”.

As to `Cc1ccc(-c2ccc3c(c2)O[C@H](CN(C)C(=O)NC(C)C)[C@H](C)CN([C@H](C)CO)S3(=O)=O)cc1`, the cytotoxicity call in the assay on HSkMC and in the assay with HepG2 was “inactive” in each case. For the same compound, the growth inhibition call in the assay with S. aureus RN4220 was “inactive”.

On to `Cc1ccc(S(=O)(=O)N(C)C[C@H]2Oc3ccc(NC(=O)Nc4ccc(C(F)(F)F)cc4)cc3C(=O)N([C@H](C)CO)C[C@H]2C)cc1`, for which the cytotoxicity call in the assay on HSkMC and with HepG2 was “active” throughout. Besides, in the assay on S. aureus RN4220, the growth inhibition call was “inactive”.

Consider `C[C@@H]1CN([C@H](C)CO)C(=O)c2cc(NS(=O)(=O)c3ccc(Cl)cc3)ccc2O[C@@H](C)CCCCO[C@H]1CN(C)Cc1ccc(C(F)(F)F)cc1`, for which the cytotoxicity call in the assay on HSkMC and with HepG2 was “active” in each case. Also, in the assay on S. aureus RN4220, the growth inhibition call is “inactive”.

Take `Cc1ccc(S(=O)(=O)N(C)C[C@@H]2OCCCC[C@H](C)Oc3ccc(NC(=O)C4CCCCC4)cc3C(=O)N([C@@H](C)CO)C[C@@H]2C)cc1`: the cytotoxicity call in the assay on HSkMC and in the assay on HepG2 was “inactive” throughout. Further, in the assay on S. aureus RN4220, the growth inhibition call is “inactive”.

For `CN(C)C(=O)C[C@@H]1CC[C@H](NC(=O)C2CC2)[C@H](CO)O1`, the cytotoxicity call with HSkMC and in the assay with HepG2 was “inactive” in each case. Moreover, in the assay on S. aureus RN4220, the growth inhibition call is “inactive”.

Turning to `Cc1noc(C)c1S(=O)(=O)N(C)C[C@H]1Oc2ccc(NC(=O)Cn3cnnn3)cc2C(=O)N([C@H](C)CO)C[C@H]1C`, in the assay with HSkMC, the cytotoxicity call was “active”. Further, the cytotoxicity call in the assay on HepG2 was “inactive”. Besides, in the assay on S. aureus RN4220, the growth inhibition call was “inactive”.

Turning to `COc1ccc(NC(=O)N(C)C[C@H]2OCCCC[C@H](C)Oc3ccc(NS(=O)(=O)c4ccc(C)cc4)cc3C(=O)N([C@@H](C)CO)C[C@@H]2C)cc1`, the cytotoxicity call in the assay on HSkMC and in the assay on HepG2 was “inactive” each time. The growth inhibition call in the assay on S. aureus RN4220 is “inactive”.

With `C[C@@H]1CN([C@H](C)CO)S(=O)(=O)c2ccc(-c3ccccc3F)cc2O[C@@H]1CN(C)S(C)(=O)=O`, the cytotoxicity call with HSkMC and in the assay with HepG2 was “inactive” in each case. Also, the growth inhibition call with S. aureus RN4220 is “inactive”.

Turning to `COc1ccc(OC)c(CCNC(=O)CN)c1`, the cytotoxicity call in the assay with HSkMC and with HepG2 was “inactive” throughout. For the same compound, the growth inhibition call with S. aureus RN4220 is “inactive”.

As to `C[C@H]1CN([C@@H](C)CO)C(=O)Cc2cc(NC(=O)Cc3ccccc3)ccc2O[C@H]1CN(C)C(=O)Nc1ccc(C(F)(F)F)cc1`, the cytotoxicity call in the assay on HSkMC and with HepG2 was “inactive” throughout. In addition, in the assay with S. aureus RN4220, the growth inhibition call was “inactive”.

`Cc1ccc(S[C@]2(C(=O)O)CC(=O)N(Cc3ccccc3Cl)[C@@H]2c2ccc(CO)cc2I)cc1`: the cytotoxicity call in the assay with HSkMC and in the assay on HepG2 was “inactive” each time. Also, the growth inhibition call with S. aureus RN4220 is “inactive”.

Take `O=C(C[C@@H]1C[C@H]2c3cc(NC(=O)NC4CCCC4)ccc3O[C@H]2[C@@H](CO)O1)NCc1ccc2c(c1)OCO2`: the cytotoxicity call with HSkMC and in the assay on HepG2 was “inactive” in each case. Further, the growth inhibition call in the assay on S. aureus RN4220 is “inactive”.

Turning to `C[C@H](CO)N1C[C@H](C)[C@H](CN(C)Cc2ccc(C(=O)Nc3ccccc3N)cc2)Oc2ccc(NC(=O)CCC(F)(F)F)cc2CC1=O`, the cytotoxicity call in the assay on HSkMC and with HepG2 was “inactive” throughout. Moreover, the growth inhibition call in the assay with S. aureus RN4220 was “inactive”.

`C[C@H]1CN([C@@H](C)CO)S(=O)(=O)c2ccc(-c3cccc(F)c3)cc2O[C@@H]1CN(C)S(C)(=O)=O`: the cytotoxicity call in the assay with HSkMC and in the assay with HepG2 was “inactive” each time. Further, the growth inhibition call in the assay with S. aureus RN4220 is “inactive”.

For `CCCCCN1CC=C[C@@]23O[C@@H]4C=CCOC(=O)[C@@H]4[C@H]2C(=O)N(CCO)[C@@H]3C1=O`, the cytotoxicity call with HSkMC and in the assay on HepG2 was “inactive” throughout. For the same compound, the growth inhibition call with S. aureus RN4220 is “inactive”.

`C[C@@H]1CN([C@@H](C)CO)C(=O)c2c(c3ccccc3n2C)-c2ccccc2CO[C@@H]1CN(C)Cc1cccc2c1OCCCO2`: the cytotoxicity call in the assay on HSkMC and in the assay on HepG2 was “inactive” in each case. Further, the growth inhibition call in the assay with S. aureus RN4220 is “inactive”.

For `C[C@H](CO)N1C[C@H](C)[C@@H](CN(C)C(=O)N[C@H](C)c2ccccc2)OCc2ccccc2-c2c(n(C)c3ccccc23)C1=O`, the cytotoxicity call with HSkMC and with HepG2 was “inactive” throughout. The growth inhibition call in the assay on S. aureus RN4220 is “inactive”.

For the compound `C=C1CC(=O)C2=C(C)C[C@H](O[C@@H]3O[C@H](CO)[C@@H](O)[C@H](O)[C@H]3O)[C@H]3C(=C)C(=O)O[C@@H]3[C@@H]12`, the cytotoxicity call in the assay with HSkMC and with HepG2 was “inactive” each time. For the same compound, the growth inhibition call in the assay on S. aureus RN4220 is “inactive”.

Consider `C[C@@H]1CN([C@H](C)CO)C(=O)CCCn2cc(nn2)CO[C@@H]1CN(C)S(=O)(=O)c1cn(C)cn1`, for which the cytotoxicity call in the assay on HSkMC and with HepG2 was “inactive” throughout. For the same compound, the growth inhibition call in the assay on S. aureus RN4220 is “inactive”.

Take `C[C@H](CS)C(=O)N1CCC[C@H]1C(=O)O`: the cytotoxicity call in the assay with HSkMC and with HepG2 was “inactive” in each case. For the same compound, the growth inhibition call in the assay with S. aureus RN4220 was “inactive”.

In the case of `C[C@H]1CN([C@@H](C)CO)C(=O)c2cccc(NC(=O)CCCCCC(=O)Nc3ccccc3N)c2O[C@@H]1CN(C)Cc1ccc(C(F)(F)F)cc1`, the cytotoxicity call in the assay on HSkMC (human skeletal muscle cells) and with HepG2 was “inactive” each time. In the assay on S. aureus RN4220, the growth inhibition call is “inactive”.

Take `C[C@H](CO)N1C[C@H](C)[C@@H](CN(C)S(=O)(=O)c2cn(C)cn2)OCc2ccccc2-c2c(n(C)c3ccccc23)C1=O`: the cytotoxicity call with HSkMC and in the assay on HepG2 was “inactive” each time. The growth inhibition call in the assay on S. aureus RN4220 was “inactive”.

Consider `C[C@H]1CCCCO[C@H](CN(C)C(=O)NC2CCCCC2)[C@@H](C)CN([C@@H](C)CO)C(=O)c2cc(NC(=O)Nc3ccc4c(c3)OCO4)ccc2O1`, for which the cytotoxicity call in the assay with HSkMC and in the assay on HepG2 was “inactive” throughout. Moreover, in the assay on S. aureus RN4220, the growth inhibition call was “inactive”.

Regarding `Cc1noc(C)c1S(=O)(=O)N(C)C[C@H]1Oc2ccc(NC(=O)CCCN(C)C)cc2C(=O)N([C@H](C)CO)C[C@@H]1C`, the cytotoxicity call in the assay with HSkMC and with HepG2 was “inactive” in each case. Besides, in the assay on S. aureus RN4220, the growth inhibition call is “inactive”.

(Values after the antibiotic and cytotoxicity screens of Wong et al. (2023).)
